Results taken from PubChem BioAssay AID1645886 (National Center for Advancing Translational Sciences (NCATS), 2021).
Several values for one entry are separate records, joined by “and”; a condition that tells them apart may be missing. Identical values can stand only once. The whole screen tested about 16,000 compounds, of which about 260 (1.6%) were called active. The inconclusive results got no clear call from the source; some entries with a clear call stand among them for comparison. The call rests on the fitted dose curve; in most records, active means well fitted inhibition curve with a large enough effect; inconclusive means small, poorly fitted or top-dose-only effect; inactive means no such curve, though single readings can be large or run the other way. Potencies of inconclusive entries are doubtful fits and often do not repeat.

Molecular target: Rap guanine nucleotide exchange factor 4 (Homo sapiens) (UniProt Q8WZA2)
Assay: Validation qHTS for antagonist of cAMP-regulated guanine nucleotide exchange factor 4 (EPAC2); further: nearly all actives have a fitted effect of over 40% in size
Conditions: EPAC2 Rap1B BODIPY-GDP exchange, fluorescence; activity, negative = inhibition: at 112 µM (top of the series)
From the text: Principle Investigator: Xiaodong Cheng Ph.D. The University of Texas Medical Branch, […], TX MLPCN Grant: NS066510 In multi-cellular eukaryotic organisms, the effects of cAMP are transduced by two ubiquitously-expressed intracellular cAMP receptors, the classic protein kinase A/cAMP-dependent protein kinase (PKA/cAPK) and the more recently discovered exchange protein directly activated by cAMP/cAMP-regulated guanine nucleotide exchange factor (EPAC/cAMP-GEF). Both PKA and EPAC are ubiquitously expressed in all tissues, and an increase in intracellular cAMP levels will lead to the activation of both PKA and EPAC. Therefore, careful dissections of the individual role and relative contribution of EPAC and PKA within the overall cAMP signaling in various model systems are critical for further elucidating the mechanism of cAMP signaling. To date no EPAC-specific antagonists and agonist, as well as isoform-specific agonists have been reported, and developing EPAC-specific pharmacological probes to determine the physiological functions that EPAC play in the overall cAMP-mediated signaling remains a major challenge within the research field. Furthermore, identified regulators of EPAC may lead to new mechanism-based therapeutic strategies specifically targeting the EPAC / cAMP-signaling components as EPAC has been implicated to play important roles in major human pathological conditions such as diabetes, heart disease, and cancer. This qHTS will be used to screen the Molecular Libraries Small Molecule Repository (MLSMR) as a concentration-titration series using the NCGC unique quantitative screening (qHTS) platform to find activators for EPAC1. In addition, this assay will also be used as a counterscreen for the EPAC2 qHTS. This fluorescent based assay is developed and validated for EPAC1 that measures exchange using EPAC effector Rap1 complex with BODIPY-GDP, a GDP analog with a tethered fluorophores. Activators are identified by monitoring the change in fluorescence signal as the exchanged free BODIPY-GDP has a reduced fluorescence compared to Rap1-bound BODIPY-GDP. Increase in signal (activation) is the desired outcome for the EPAC1 agonist while no activity in this assay is desired for the EPAC2 agonist counterscreen. Reference: [1] de Rooij, J., Zwartkruis, F. J., Verheijen, M. H., Cool, R. H., Nijman, S. M., Wittinghofer, A., and Bos, J.L. (1998) Nature 396, 474-477.
Briefly, three uL of reagents (100 nM EPAC2, 250 nM RAP1B-BODIPY-GDP, 50 uM GDP) were dispensed into a 1536-well Greiner black solid-bottom medium binding assay plate. Controls and test compounds (23 nL) were transferred to the plate via a Kalypsys pin tool equipped with a 1536-pin array. The plates were centrifuged at 1,000 rpm for 15 seconds followed by 5 minute incubation at room temperature. The assay plates were read at 5 minute intervals for 30 minutes in the ViewLux plate reader using 480nm excitation and 540nm emission filters. The results were normalized to the agonist positive control of 6.5 mM cAMP.
Potency means the concentration at half of the fitted maximal effect; tags describe the fitted curve by direction and shape.

Chain of UniProt Q8WZA2 (Q8WZA2 whole entry, looked up): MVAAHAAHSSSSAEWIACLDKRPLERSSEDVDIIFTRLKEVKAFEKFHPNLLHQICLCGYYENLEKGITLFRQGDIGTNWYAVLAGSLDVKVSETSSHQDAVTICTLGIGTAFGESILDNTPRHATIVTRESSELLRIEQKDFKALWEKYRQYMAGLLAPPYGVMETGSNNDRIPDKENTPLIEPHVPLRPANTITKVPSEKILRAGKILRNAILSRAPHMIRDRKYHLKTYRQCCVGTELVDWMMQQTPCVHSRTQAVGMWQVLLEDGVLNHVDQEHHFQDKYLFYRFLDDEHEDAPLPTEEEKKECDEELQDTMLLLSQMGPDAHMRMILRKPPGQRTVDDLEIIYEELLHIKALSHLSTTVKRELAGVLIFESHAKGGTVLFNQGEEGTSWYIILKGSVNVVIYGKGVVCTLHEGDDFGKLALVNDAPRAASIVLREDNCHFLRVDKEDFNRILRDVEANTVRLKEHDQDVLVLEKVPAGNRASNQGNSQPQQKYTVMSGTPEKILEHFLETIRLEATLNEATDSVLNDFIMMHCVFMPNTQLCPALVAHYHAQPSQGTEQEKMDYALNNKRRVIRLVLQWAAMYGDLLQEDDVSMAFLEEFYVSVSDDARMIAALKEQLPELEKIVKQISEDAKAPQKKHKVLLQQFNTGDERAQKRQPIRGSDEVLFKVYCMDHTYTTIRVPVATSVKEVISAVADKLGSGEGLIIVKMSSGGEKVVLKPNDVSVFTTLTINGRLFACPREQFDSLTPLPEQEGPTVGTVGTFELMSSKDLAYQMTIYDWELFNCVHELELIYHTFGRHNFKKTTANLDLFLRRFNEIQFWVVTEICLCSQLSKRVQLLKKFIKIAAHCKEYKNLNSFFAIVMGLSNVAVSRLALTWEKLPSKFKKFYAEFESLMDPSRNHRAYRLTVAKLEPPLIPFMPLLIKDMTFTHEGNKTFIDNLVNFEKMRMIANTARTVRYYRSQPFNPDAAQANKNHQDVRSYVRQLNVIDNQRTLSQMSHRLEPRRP

Row | SMILES | Potency | activity, negative = inhibition
1 | O=C(c1ccco1)N1CCC[C@@]2(CCN(c3ccccc3)C2)C1 | inconclusive: 0.141 µM [inhibitor, full curve, poor fit] | 
2 | Cc1cnc(C)c(-c2cc(F)cc3c2OC(CNC(=O)C2CCOC2)C3)n1 (stereo unspecified) | inconclusive: 100 µM [inhibitor, partial curve, poor fit] | 
3 | COc1ccc2ccc(=O)oc2c1CC=C(C)C | inconclusive: 15.8 µM [inhibitor, partial curve, poor fit] | 
4 | C[C@@H]1CCC(=O)N(CC[C@H](Sc2ccc(Br)cc2)c2ccccc2)CC1 | inconclusive: 20 µM [inhibitor, full curve] | 
5 | CC1=C(/C=C/C(C)=C/C=C/C(C)=C/C(=O)O)C(C)(C)CCC1 | inconclusive: 79.4 µM [inhibitor, partial curve, poor fit] and inconclusive: 100 µM [inhibitor, single point] | 
6 | COCCn1c(=O)c(-c2ccc(OC)cc2)nc2cnc(Nc3cccc(OC)c3)nc21 | inconclusive: 100 µM [inhibitor, single point] | 
7 | COc1cccc(N2[C@@H](CC(C)=O)c3cc(C(F)(F)F)ccc3S2(=O)=O)c1 | inconclusive: 70.8 µM [inhibitor, single point] | 
8 | Cc1occc1C(=O)NCCN1Cc2ccccc2OC(c2ccccc2F)C1 (stereo unspecified) |  | inactive: -8.71%
9 | COc1cc2c3cc1Oc1cc(ccc1O)C[C@@H]1c4c(cc(OC)c(O)c4Oc4ccc(cc4)C[C@@H]3N(C)CC2)CC[N+]1(C)C | inconclusive: 0.708 µM [inhibitor, full curve, poor fit] | 
10 | CC(C)CN1CCC(=O)N(CCN=[N+]=[N-])CC1 | inconclusive: 100 µM [inhibitor, partial curve, poor fit] | 
11 | CC1(C)[C@H](C(=O)O)N2C(=O)C[C@H]2S1(=O)=O |  | inactive: -18.9%
12 | COc1ccccc1CNc1ncncc1-c1ccc2c(c1)OCO2 | inconclusive: 56.2 µM [inhibitor, partial curve, poor fit] | 
13 | Nc1ccc(N2C(=O)c3ccccc3C2=O)c(Cl)c1 | inconclusive: 22.4 µM [inhibitor, single point] | 
14 | O=C1c2ccccc2C(=O)C1c1ccc(Cl)cc1 | inconclusive: 15.8 µM [inhibitor, full curve] | 
15 | OCC1CCCN(c2nc3cc4c(cc3cc2CNCc2cccc(C(F)(F)F)c2)OCO4)C1 (stereo unspecified) |  | inactive: 5.28%
16 | COC(=O)/C=C/c1cc(F)ccc1S(=O)(=O)NC(C)(C)C | inconclusive: 89.1 µM [inhibitor, single point] | 

Row | SMILES | Potency | activity, negative = inhibition
17 | O=C(O)C1CCCN(CCC=C(c2ccccc2)c2ccccc2)C1 (stereo unspecified) | inconclusive: 79.4 µM [inhibitor, partial curve, poor fit] | 
18 | CC(=O)O[C@]1(C(C)=O)CC[C@H]2[C@@H]3C=C(Cl)C4=CC(=O)[C@@H]5C[C@@H]5[C@]4(C)[C@H]3CC[C@@]21C | inconclusive: 100 µM [inhibitor, single point] | 
19 | O=C(c1csnn1)N1CCC2(CCCN(C(c3ccccc3)c3ccccc3)C2)CC1 | inconclusive: 44.7 µM [inhibitor, partial curve, poor fit] | 
20 | COCCn1c(=O)c(-c2cn(C)c3ccccc23)nc2cnc(N3CCOCC3)nc21 |  | inactive: -10.3%
21 | CN(Cc1ccco1)c1ncnc2ccc(-c3ccccc3Cl)cc12 | active: 39.8 µM | 
22 | CCCCC(CC)CCC(CC(C)C)OS(=O)(=O)O (stereo unspecified) | inconclusive: 39.8 µM [inhibitor, partial curve] | 
23 | CN1C[C@H](C(=O)N[C@]2(C)O[C@@]3(O)[C@@H]4CCCN4C(=O)[C@H](Cc4ccccc4)N3C2=O)C[C@@H]2c3cccc4[nH]cc(c34)C[C@H]21 | inconclusive: 79.4 µM [inhibitor, single point] | 
24 | CN(C)c1ncc2ncc(=O)n(C)c2n1 | inconclusive: 56.2 µM [inhibitor, partial curve, poor fit] | 
25 | O=C(O)Cc1nn(Cc2ccc(Br)cc2F)c(=O)c2ccccc12 | inconclusive: 56.2 µM [inhibitor, partial curve, poor fit] | 
26 | O=C(Cc1ccc(Cl)cc1)c1c(O)cc(O)cc1O | inconclusive: 56.2 µM [inhibitor, partial curve, poor fit] | 
27 | CCOc1ccc2nc(N3CCCN(CCCn4cccn4)CC3)nc(C)c2c1 |  | inactive: -5.1%
28 | CCCCCCCCCCCCCC[n+]1ccc(C)cc1 | inconclusive: 39.8 µM [inhibitor, single point] | 
29 | CCCCCCCCCCCCCCCC(=O)OC[C@@H](NC(=O)C(Cl)Cl)[C@H](O)c1ccc([N+](=O)[O-])cc1 | inconclusive: 22.4 µM [inhibitor, full curve, poor fit] | 
30 | COc1cc(CN2CCC3(CC2)c2ccccc2[C@@H](NC(=O)c2ccccc2OC)[C@@H]3O)ccc1F |  | inactive: -18.4%
31 | CCC1(C2CCN(Cc3cccnc3)CC2)NC(=O)N(CC2COc3ccccc3O2)C1=O (stereo unspecified) |  | inactive: -20.3%
